Experimental data as given in PubChem BioAssay AID485344 (National Center for Advancing Translational Sciences (NCATS), 2010).
Out of some 340,000 compounds screened, about 6,900 (2%) were called active. No stated cut-off is given here; in the data, active means inhibition above about 30%; inactive means below that, where a call was filed. This is a selection; strong and weak results do not stand in their true shares. Entries without a call were filed so in the source.

The molecules below were run against D(2) dopamine receptor (Homo sapiens) (UniProt P14416) (assay: HTS Assay for Allosteric Antagonists of the Human D2 Dopamine Receptor: Primary Screen for Antagonists). Conditions: HEK293 TREx D2 cells, calcium flux, dopamine EC80; at 10 µM; stronger effect = higher value.
Chain of UniProt P14416 (P14416 whole entry, looked up): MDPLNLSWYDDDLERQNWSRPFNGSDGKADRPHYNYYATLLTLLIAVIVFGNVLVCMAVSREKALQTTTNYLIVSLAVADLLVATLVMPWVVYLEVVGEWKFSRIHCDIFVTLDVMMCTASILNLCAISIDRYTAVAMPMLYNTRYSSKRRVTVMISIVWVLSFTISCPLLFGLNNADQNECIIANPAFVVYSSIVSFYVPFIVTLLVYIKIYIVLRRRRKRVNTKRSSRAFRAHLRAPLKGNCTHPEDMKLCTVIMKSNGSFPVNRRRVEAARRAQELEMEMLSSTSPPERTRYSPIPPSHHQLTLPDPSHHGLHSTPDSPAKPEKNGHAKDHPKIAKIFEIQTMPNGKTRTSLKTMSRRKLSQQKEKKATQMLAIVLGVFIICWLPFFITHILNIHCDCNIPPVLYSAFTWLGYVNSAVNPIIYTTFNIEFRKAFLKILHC
Outline: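 Read-out: kinetic calcium fluorescence (1 cycle/s) in inducible HEK293 T-REx D2 cells after an EC80 dopamine addition that followed 180 s compound preincubation. Loss of the dopamine response indicates antagonism.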
Further: 0% is about no effect.

In order of falling inhibition:
1. CCOc1ccc(CCNC(=O)c2cc3c(=O)n(C)c4ccccc4c3n2C)cc1OCC  21.8%
2. Cc1ccc(Cl)cc1N1CCN(C(=O)Cn2c(-c3cccs3)cc3cc(F)ccc32)CC1  19.9%
3. Cc1c(Cl)cccc1NC(=O)N1CCOc2ccccc21  18.1%
4. O=C(NCC(c1ccc2c(c1)OCO2)N1CCN(c2ccccc2)CC1)C(=O)Nc1cccc(F)c1 (centres undefined)  17.5%
5. COC(=O)CCN(C(=O)c1c(C)oc2ncnc(N3CCOCC3)c12)c1ccccc1  15.4%
6. Cc1ccccc1NC(=O)CSc1nc(-c2ccccc2)cn1-c1ccccc1F  14.7%
7. O=C(NCc1ccccc1)c1cc2sccc2n1Cc1ccc(F)cc1  14.2%
8. COc1cccc(-n2c(-c3ccccc3F)nc3c(cnn3-c3ccc(C)cc3)c2=O)c1  12.4%
9. CCOc1ccc(C(=O)c2cn(CC(=O)Nc3ccc4c(c3)OCCO4)c3ccc(OC)cc3c2=O)cc1  11.5%
10. N#C/C(=C\c1cccc(F)c1)c1nc(-c2cc3c(ccc4ccccc43)oc2=O)cs1  10.6%
11. O=C(Cn1cc(SCc2ccccc2F)c2ccccc21)N1CCCCCC1  10.5%
12. Cc1nc(-c2ccccc2)sc1-c1ccc(SCC(=O)NCc2ccccc2)nn1  10.2%
13. Cc1cccc(NC(=O)Cn2cc(C(=O)C3CCCCC3)c3ccccc32)c1C  9.69%
14. CC(=O)c1ccc(NC(=O)c2ccc3c(c2)nnn3C2CCCC2)cc1  9.55%
15. O=C(/C=C/c1ccccc1)N1CCN(Cc2cc(=O)n3nc(-c4ccccc4)sc3n2)CC1  9.38%
16. CCC(=O)N1CCc2cc(S(=O)(=O)N(C)c3cccc(C)c3)ccc21  9.37%
17. Cc1ccc(C)c(N2CCN(C(=O)c3cc4c(=O)n(Cc5cccs5)ccc4nc3C)CC2)c1  9.21%
18. Cc1ccc(NC(=O)Nc2ccc3nc(N4CCN(C)CC4)cc(C)c3c2)cc1F  8.9%
19. CCOc1ccc(CCn2c3c(c(=O)[nH]c2=O)C(NC(=O)c2ccccc2)(C(F)(F)F)C(=O)N3)cc1OCC (centres undefined)  8.89%
20. CCN(CC)C(=O)CSc1nc2cc3c(cc2c(=O)n1CCCCCC(=O)NCc1ccc(OC)cc1)OCO3  7.79%
21. CCOc1ccccc1NC(=O)C(=O)NCCc1sc2nc(-c3ccc(OC)cc3)nn2c1C  7.64%
22. CCC1CCCCN1CCCNC(=O)c1c(O)nc2ccccn2c1=O (centres undefined)  7.32%
23. CCc1ccc(OCC(=O)Nc2cc(-c3ccc(C)cc3)no2)cc1  7.06%
24. Cc1ccc(-n2ncc(C(=O)N3CCC(c4ccccc4)C3)c2C2CCN(C(=O)OC(C)(C)C)CC2)cc1 (centres undefined)  6.75%
25. O=C(Nc1ccc(-c2nc3cc(NC(=O)c4ccccc4F)ccc3o2)cc1)c1ccccc1F  6.45%
26. COc1ccc(CNC(=O)Cn2c(=O)nc(-c3ccccc3F)c3cc(Cl)ccc32)cc1  6.27%
27. Cc1ccccc1CNC(=O)Cn1ccc2cc(S(=O)(=O)N3CCCCC3)ccc21  6.03%
28. Cc1ccc(-c2nc3c(C)cccn3c2Nc2ccccc2C)s1  6.02%
29. COc1ccc(C2=C(C)C(=O)N(Cc3ccc(C(=O)Nc4cccc(F)c4)cc3)S2(=O)=O)cc1  5.63%
30. O=C(Nc1nc(-c2ccc(Br)cc2)ns1)c1ccccc1F  5.39%
31. CC(=O)N1CCCc2cc(S(=O)(=O)N3CCCC(C(=O)Nc4ccc(C)c(C)c4)C3)ccc21 (centres undefined)  4.82%
32. CCCc1nn2c(=O)cc(COC(=O)c3cccs3)nc2s1  4.82%
33. COc1cccc(CN2C(=O)c3ccccc3Sc3ccc(C(=O)NCCc4ccc(C)cc4)cc32)c1  4.82%
34. CCCCOc1ccc(CNC(=O)c2ccc(NC(=O)N3CCSc4ncccc43)cc2)cc1  3.88%
35. CCOC(=O)c1c(S(=O)(=O)NCC(=O)Nc2cc(C)ccc2OC)c(C)n(C)c1C  3.07%
36. O=C(CSc1cn(CC(=O)N2CCCCC2)c2ccccc12)NCc1ccc(F)cc1  1.86%
37. CC1CCCN(c2nc3c(S(=O)(=O)c4ccc(C(C)C)cc4)nnn3c3ccsc23)C1 (centres undefined)  1.66%
38. CCCN(CCC)CCCNC(=O)C1CCN(c2nc3ccc(CC)cc3s2)CC1  1.65%
39. COc1ccccc1C(=O)NCc1nnnn1-c1ccc(C)c(C)c1  1.5%
40. COc1cc2c(-c3ccccc3O)nc3c(c(C)nn3-c3ccccc3)c2cc1OC  1.37%
41. CCCNC(=O)c1ccccc1NC(=O)c1nsc2ccccc12  1.36%
42. N#Cc1ccccc1NC(=O)CSc1ncn[nH]1  1.33%
43. COc1ccccc1C(=O)N1CCCCC1CCN1CCOCC1 (centres undefined)  0.8%
44. CCCCCn1c(=O)[nH]c2cc(C(=O)N3CCN(c4cc(Cl)ccc4C)CC3)ccc2c1=O  0.498%
45. Cc1cccc(N2CCN(C(=O)C3CCN(S(=O)(=O)c4ccc5c(c4)oc(=O)n5C)CC3)CC2)c1C  0.358%
46. COc1ccccc1NC(=O)c1sc2nc(C)c(C(=O)Nc3ccc(C)cc3C)c(-c3ccc(Br)cc3)c2c1N  0.0728%
47. Cc1ccccc1C(=O)OCc1cc(=O)n2nc(C3CC3)sc2n1  -0.136%
48. CCOc1ccc2nc(N3CCC(C(=O)Nc4c(C)cccc4C)CC3)sc2c1  -0.182%
49. Cc1ccc(Cn2c(=O)n(-c3ccc(C)cc3)c(=O)c3c2c2cc(C)ccc2n3C)cc1  -0.213%
50. CCOC(=O)Cn1c(=O)cc(C(F)(F)C(F)(F)F)c2c(C)nn(CC)c21  -0.384%
51. Cc1ccc(OCC(=O)Nc2ccc3nc(SCC(=O)Nc4ccc(C)cc4C)sc3c2)cc1  -0.582%
52. CCOC(=O)C(Cc1ccccc1)NC(=O)CCc1c(C)nc2nc(C)nn2c1C (centres undefined)  -1.05%
53. Cc1ccc(C)c(CN2C(=O)c3ccccc3S(=O)c3ccc(C(=O)N(C)Cc4ccccc4)cc32)c1 (centres undefined)  -1.19%
54. Cc1cccc(C(=O)Nc2ccc(C(=O)OCc3cc(=O)n4c5c(sc4n3)CCCC5)cc2)c1  -1.33%
55. Cc1ccc(S(=O)(=O)Nc2cc3c(cc2Cl)n(C)c(=O)c(=O)n3C)cc1  -1.99%
56. CCOc1cc(C2c3c(oc4cc(C)cc(C)c4c3=O)C(=O)N2CCO)ccc1O (centres undefined)  -3.01%
57. Cc1c(Cl)cccc1NC(=O)C1CCCN(c2nnc(-n3c(C)ccc3C)s2)C1 (centres undefined)  -3.74%
58. Cc1cc(C)c2oc(C(=O)Nc3ccc(S(=O)(=O)N(C)c4ccccc4)cc3)cc(=O)c2c1  -3.98%
59. CCN(CC)c1ccc2cc(-c3nc(-c4ccc(Cl)cc4Cl)cs3)c(=O)oc2c1  -4.48%
60. CCCC1=Nc2cc(C(=O)NCCc3ccc(OCC)cc3)ccc2Sc2ccccc21  -4.98%
61. CCOc1ccccc1NS(=O)(=O)c1ccc2[nH]c3c(c2c1)CCCCC3  -5.29%
62. CC(C)(C)c1ccc(C(=O)NC2(C(F)(F)F)NC(=O)N(CCc3ccccc3)C2=O)cc1 (centres undefined)  -5.54%
63. CCOC(=O)c1ccc(Nc2nc3nonc3nc2Nc2cccc(C)c2C)cc1  -6.24%
64. Cc1ccc(NC(=O)NCCOCCn2c(=O)oc3ccccc32)cc1C  -6.62%
65. O=C(NC1CCCC1)c1ccc2c(=O)n(Cc3ccccc3)c(SCc3cccc([N+](=O)[O-])c3)nc2c1  -6.77%
66. COc1ccc(CNC(=O)CSc2ncc3c(n2)-c2cc(Cl)ccc2N(Cc2ccccc2)S3(=O)=O)cc1  -7.21%
67. O=S(=O)(Nc1cccc(-c2ccc(N3CCOCC3)nn2)c1)c1ccc(F)cc1F  -7.25%
68. COc1ccccc1NC(=O)Cn1c(=O)n(Cc2cccs2)c(=O)c2cccnc21  -7.43%
69. COC(=O)c1sccc1S(=O)(=O)N1CCN(c2ccc(C)cc2C)CC1  -8.47%
70. CCOc1ccc(C(=O)CSc2nc3cc(C(=O)NC4CCCC4)ccc3c(=O)n2CC2CCCO2)cc1 (centres undefined)  -8.82%
71. COc1ccc(-c2csc(-c3nc(-c4ccc(Br)s4)cs3)n2)cc1F  -9.25%
72. Cn1c(=O)c2c(nc(Oc3ccc(F)cc3)n2Cc2ccc(F)cc2)n(C)c1=O  -9.6%
73. COc1cccc(NC(=O)CSc2ncc3c(n2)-c2ccc(Cl)cc2N(C)S3(=O)=O)c1  -9.95%
74. CCOc1ccccc1NC(=O)c1cc(S(=O)(=O)NC2CCCC2)ccc1F  -11.5%
75. CSc1cccc(NC(=O)C2CCCN(C(=O)c3cnn(-c4ccc(F)cc4)c3-n3cccc3)C2)c1 (centres undefined)  -11.5%
76. COc1ccc(S(=O)(=O)N(CC(=O)Nc2cc(C)ccc2OC)Cc2ccccc2)cc1  -12.1%
77. Cc1ccc(CSC2=Nc3ccccc3C3=NC(CCC(=O)NCc4cccs4)C(=O)N23)cc1 (centres undefined)  -12.6%
78. CCN(CCCNC(=O)c1ccc(Sc2ccc(F)cc2)c(NC(C)=O)c1)c1ccccc1  -14%
79. CCOc1ccc(CNC(=O)c2ccccc2NC(=O)c2nsc3ccccc23)cc1  -14.4%
80. Cc1ccc(C)c(NC(=O)c2nc(S(C)(=O)=O)ncc2N(Cc2ccc(C(C)(C)C)cc2)Cc2ccco2)c1  -19%
81. Cc1coc2cc3oc(=O)c(CC(=O)NCc4ccccc4)c(C)c3cc12  -19.7%
82. COc1ccc(NC(=O)CSc2nc3ccccc3nc2Cc2ccc(C)cc2)cc1Cl  -20.3%
83. Cc1ccc(CNC(=O)C(=O)NCC(c2cccnc2)N2CCN(c3ccc(F)cc3)CC2)cc1 (centres undefined)  -23.9%
84. O=c1c2c3c(sc2n(Cc2cc(=O)n4ccccc4n2)c(=O)n1-c1ccc(Cl)cc1)CCC3  -27.9%

With COc1ccccc1N1CCN(CCCCOc2c(OC)cccc2OC)CC1 the inhibition was active: 78.4%.
With CCOC(=O)c1c(SCC(=O)Nc2nc(C)cs2)nc(=O)[nH]c1C the inhibition was active: 32%.
With O=C(CCc1nc(-c2ccccc2)no1)Nc1cccnc1 the inhibition was active: 57.9%.
In the case of COc1ccc(C(CNC(=O)C(C)(C)Oc2ccc(Cl)cc2)N2CCCCC2)cc1 (centres undefined), the inhibition is reported as active: 86.1%.
With COC(=O)C(CC(C)C)N1CCC(=O)c2ccccc2S1(=O)=O (centres undefined) the inhibition was active: 51.6%.
In the case of CCOc1ccccc1N1CCN(CC(O)COCc2cccs2)CC1 (centres undefined), the inhibition is reported as active: 67.7%.
In the case of CCOc1ccc(CNc2ccc(N3CCN(Cc4ccccc4)CC3)cc2)cc1, the inhibition is reported as active: 59%.
In the case of CC(C)(C)C(=O)NC(=S)NNC(=O)c1ccc(-c2ccccc2)cc1, the inhibition is reported as active: 63.6%.
In the case of N#CC1=C(N)N2C(=C(C#N)C1c1cccc(Br)c1)Nc1ccccc12 (centres undefined), the inhibition is reported as active: 39.4%.
O=C(Cc1ccccc1)NC1CCN(Cc2ccccc2)CC1 was tested, and the inhibition was active: 36.4%.
